Read counts are not given, so values of variants with three or more changes are uncertain.
B1: OR4K15 (parent)
chain: GUUAACGGUCAUAGGCCAUGGAAACUAGGAGCACCAUUUCGCUGCCAGUGAAGAAAUGAACAAAGAAAAUCUGGGCCAGGCAGGCAUCAAAAGAAAUAGUCUUGCGCUCAACCAGAAAGUCUGUAAUCAUUUUAAGGGUA

Variants of: B1
Assay: self-cleavage, relative activity (ratio to wild type); higher = more cleavage; in vitro, sequencing; the parent is a self-cleaving ribozyme

Row | Variant | self-cleavage
1 | U37C A90G A129G | 0.73
2 | A23G A55G G73U U130C | 0.18
3 | A5G A69G A117G | 1.83
4 | U37C A114G U132C | 0.87
5 | A13U A24G A54G | 0.71
6 | U19C A22U A63U A110G | 0.15
7 | U2C A69G A92G A135G | 1.12
8 | A23G A89U A96U A114G | 1.43
9 | U3C G15A A62U U122C | 0.43
10 | A62C A96G U120C | 1.17
11 | A4G U39C A56G A66G U122C | 1.3
12 | G73U U87A A90G | 0.37
13 | A52G A64G A134G | 1.81
14 | A23U A52G A63U A89G G106A A116G U131C | 0.03
15 | U12A A78U A82G U122C A134U | 0.32
16 | A56G A118G A135G | 1.09
17 | A4G A56G A59G A66G A111U A125G U127C | 0.03
18 | A33C G53U A94G U122C A129U | 0.3
19 | A55G A60G U97G | 0.9
20 | A56G A60G G106A A111G A117G | 0.01
21 | U9C A23U A33G A78G A91G A114G | 0.05
22 | A47U A78U G84U U127C | 0.11
23 | G65A A68G U72C U122G U127C | 0.1
24 | A59G A60G A82G | 0.66

Row | Variant | self-cleavage
25 | U9A A117G U133C | 1.64
26 | A4G A23G A55U A62G A118C | 0.54
27 | U19C A51G A89G | 1.27
28 | A91G U102C U108C | 0
29 | U2G A63G U97C A110G A111G | 0.06
30 | A5G A22G G53A G58A U103C | 0.71
31 | A22G A98G U102C | 1
32 | G8A A30U A114G U127C | 0.01
33 | U49A U57G U108G | 0.02
34 | A96G A118G A125G | 1.88
35 | U2A A5U U19C U100C | 1.86
36 | A63U U70A A134G | 1.35
37 | A62G A96G U122C U124C | 1.81
38 | U19C A86U A111G | 0.02
39 | U12C A18G A23G A30G U43G | 0.87
40 | A59U A69U U103C C112A U127C | 0
41 | U38C A78G A82G A92G U103C | 0.34
42 | A62G A89G G137A | 1.13
43 | A5U A24G U39A A52G | 0.89
44 | U38C C45U A51U | 1.57
45 | U39C A59G A66G | 2.09
46 | A51G A96U A135G | 2.29
47 | A5C C10U A62G A94G U103C | 0.43
48 | A13G U37C U108C U124C | 0.02

Row | Variant | self-cleavage
49 | A82G G104A A117G | 0.01
50 | U2C A111G A117C A125U | 0
51 | A23G U103C A116G A117G | 0.1
52 | A18G U39G A52G A63U | 0.61
53 | U12A A51G G65A U72C A95G A116U | 0.08
54 | U3C U49C U108C | 0.02
55 | U9C A95G A96G A110G | 0.26
56 | A23G A54G A126G U132C | 0.92
57 | A22G A51U U132C | 1.41
58 | A54G A69G A86G | 0.68
59 | A23G G31A A52G U108C | 0
60 | U9C A13U A68G A89G A110G | 0.48
61 | U57G A92G A118U U122C | 0.72
62 | A33U A36U A47G U102C | 1.43
63 | A5C A47U A55G A78G | 0.18
64 | U39A A86G U131C | 1.34
65 | A60G A64G A114G | 0.34
66 | U43C A62U A126G | 1.77
67 | A67U A111U A117G | 0.1
68 | U9C A22G A69G | 0.57
69 | U49A A55G U100C | 2.16
70 | A89U A117G U122A | 2.03
71 | A24G A33G U127C | 0.34
72 | A67G A82G A90G | 0.18

Row | Variant | self-cleavage
73 | A30G A51G U87C A118G A140C | 1.08
74 | U9A A54U A64G A67G A78G A129U U132C | 0.08
75 | U38A U43C U70C A94G A114G | 0.04
76 | U70C U108C A114G | 0.01
77 | A95G U133C G136A | 2.49
78 | A52G A55U A63G A90U | 2.01
79 | A11G U37C A96G | 1.08
80 | U37C A54G A56G | 1.54
81 | U19C A22G U57C A114G A140U | 0.19
82 | U19A A52C U72C A125G A140U | 0.09
83 | A18C U87C A110G | 0.04
84 | U39C A91G A92G G99U | 0.29
85 | A30G A52G A86G | 1.73
86 | C10U G14A G137U | 0.84
87 | A54U C71U A116G | 0.33
88 | A30G A36C A117U | 0.94
89 | U2C U43C A78G | 0.3
90 | U57C A60U A89U U102A U139C | 0.75
91 | A30G A60G U100A U102C A118G | 1.46
92 | A59G A62U A90U A110U | 1.01
93 | U57A G75C A82U U120C | 0.11
94 | U2C U87C U131C | 2.17
95 | U9A A78U A89G | 0.4
96 | A5G A33G U72A A90U A96G | 0.41

Row | Variant | self-cleavage
97 | A51U A66G A95G A117G | 0.83
98 | A24G A62G U124A U132C | 0.15
99 | A13G G20A A68G U87C U100C A110G | 0.39
100 | A52U A60G A62G A64G | 0.76
101 | A5G U19C A54G | 0.77
102 | G20U A56G A64C | 0.8
103 | U9A A30G A63G | 1.11
104 | G21U A69U A86G | 2.33
105 | U2C C17U U43C A60G A67G A89U U131C | 0.89
106 | U19A U38C A67G U131C | 1.85
107 | G15A A24G U124C U130C | 0.66
108 | A51G A52G A60G A116G G119A | 0.8
109 | A33G A47G A64G | 0.77
110 | A27G U72C A90U C107U | 0.04
111 | U19A A47G A51G A52C U100A | 0.34
112 | U43A A69G G106U U124C A125G | 0
113 | A47G G119A U124C | 1.09
114 | A51G A52G U122C | 0.37
115 | A47G A54G A67G | 1.31
116 | U26C U43A A56G U108C | 0.02
117 | G15U A23G A69G U102C | 1.97
118 | C16U A18G A111U | 0.09
119 | G50U A51G A86G | 1.76
120 | A47G A67G A114G | 0.45

Row | Variant | self-cleavage
121 | U19C A24G A111G | 0.08
122 | U19C A51G U72C U87C U122C U132C | 0.04
123 | A22G A23G U39C A56G A82U | 0.3
124 | U9C U102G A129G | 0.59
125 | A23G A30G A69G | 0.91
126 | A33G A60G U72A | 0.13
127 | A4G A47G A52C A55G G83A | 0.64
128 | U43C A90G A140G | 1.12
129 | U38C U39A A51G A90G | 0.36
130 | A30G A68G A89G A91G | 0.62
131 | A125G A129G U130C | 0.2
132 | A56G A91G A114G | 0.31
133 | A27G A56G A90G C105U | 0.04
134 | U9C U102C A111U | 0.19
135 | A11G G75A U87C C88U | 0.1
136 | A13G A30G A54U A56G | 0.67
137 | A18G U39C U97G U122C | 1.61
138 | A51C A60G A69G C105U | 0.14
139 | A22G A33G A55G A60G U72C A116G | 0.18
140 | A30G A68G A111G A116G | 0.02
141 | A30G U37A A63G A64U | 1.46
142 | C32U U70C U87C U102C | 1.65
143 | U19C A24U A33G C81U | 0.12
144 | U57C A66G A92G | 1.35

Row | Variant | self-cleavage
145 | A4G U39C U49C A67U | 1.05
146 | U9A A24G A68G A116G U127C | 0.34
147 | A51G A117G U122C | 1.6
148 | G7A A11G A52G U102C | 1.21
149 | U9C A55G U102C | 1.14
150 | C32U U37C A52U | 1.54
151 | A64G U70A U100C U108C U122A A125C | 0
152 | A55G A60G A118G | 0.58
153 | U12C U102C G123A | 1.18
154 | A82U U127A U132C | 0.27
155 | G7A U9C A47G A55G A56G A82G A92G U122C | 0.24
156 | U43C A55G A67G A90G | 1.11
157 | C10U A63G A90G A91G | 0.71
158 | A33G A55U A62U | 0.72
159 | A27G G41U A89G | 0.82
160 | U9C U37C U57C A68G | 1.53
161 | A23G A30G A33G U87C A92G U132C | 0.66
162 | A22U A56G A68G C128U | 1.17
163 | A82G A110G A111G U124C | 0.02
164 | A59G A118U A126G U127C | 0.36
165 | A36U A78U U103C U132C | 0.16
166 | A55G A86G A140U | 1.28
167 | A92G C105U U131C | 0.02

— the RNAGym collection of RNA variant scans (doi:10.7554/elife.90254)
